# From PMC4336329 (PLoS ONE, 2015)
# In all, about 310,000 compounds went through this assay and about 14,000 (4.5%) showed an effect of 50% or more. Effects have a minus sign here. The list shows a part of the results.
# Biological target: human ether-à-go-go-related gene (hERG) potassium channel (human, UniProt Q12809)
# Assay: primary screen, population patch clamp on CHO cells stably expressing hERG
# 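Further: peak tail current of the secondary pulse compared with the same well before compound.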
# Chain of human ether-à-go-go-related gene (hERG) potassium channel (Q12809 whole entry, looked up): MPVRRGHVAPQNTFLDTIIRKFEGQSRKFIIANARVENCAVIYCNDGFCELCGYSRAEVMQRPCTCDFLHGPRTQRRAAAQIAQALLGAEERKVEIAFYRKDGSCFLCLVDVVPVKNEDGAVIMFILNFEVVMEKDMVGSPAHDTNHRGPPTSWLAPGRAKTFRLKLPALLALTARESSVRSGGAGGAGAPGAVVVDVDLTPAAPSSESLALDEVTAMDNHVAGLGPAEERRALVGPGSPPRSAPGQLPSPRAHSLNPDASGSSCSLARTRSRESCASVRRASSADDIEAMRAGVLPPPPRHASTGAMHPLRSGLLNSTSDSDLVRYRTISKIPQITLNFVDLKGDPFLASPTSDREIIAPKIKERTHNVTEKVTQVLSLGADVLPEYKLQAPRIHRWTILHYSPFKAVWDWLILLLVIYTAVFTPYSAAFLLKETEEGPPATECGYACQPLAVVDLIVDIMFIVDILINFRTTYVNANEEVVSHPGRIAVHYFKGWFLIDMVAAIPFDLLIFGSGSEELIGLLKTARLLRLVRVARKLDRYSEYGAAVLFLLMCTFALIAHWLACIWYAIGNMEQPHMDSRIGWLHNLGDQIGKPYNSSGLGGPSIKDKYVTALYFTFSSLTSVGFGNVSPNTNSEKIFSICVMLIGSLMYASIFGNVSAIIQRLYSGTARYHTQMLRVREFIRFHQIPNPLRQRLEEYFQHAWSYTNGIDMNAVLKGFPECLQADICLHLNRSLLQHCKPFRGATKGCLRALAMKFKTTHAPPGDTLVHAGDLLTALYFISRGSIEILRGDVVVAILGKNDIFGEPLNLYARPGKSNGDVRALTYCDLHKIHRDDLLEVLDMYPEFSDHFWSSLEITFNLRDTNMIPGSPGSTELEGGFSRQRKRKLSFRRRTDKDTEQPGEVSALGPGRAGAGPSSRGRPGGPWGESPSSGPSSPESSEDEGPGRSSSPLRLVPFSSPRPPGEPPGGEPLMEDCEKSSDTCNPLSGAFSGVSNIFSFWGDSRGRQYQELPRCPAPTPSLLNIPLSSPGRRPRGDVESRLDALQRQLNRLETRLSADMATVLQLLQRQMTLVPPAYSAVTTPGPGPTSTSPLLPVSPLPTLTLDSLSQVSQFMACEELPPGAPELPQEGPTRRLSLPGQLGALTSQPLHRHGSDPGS
row,SMILES,"hERG current change (%, negative = inhibition) at 10uM [%]"
1,Clc1cccc(Nc2ncnc3c2cnn3-c2ccccc2)c1,5.16
2,Cc1cc(C)n(-c2ccc(NC(=O)C3CCN(Cc4cc(C)c(C)o4)CC3)cc2)n1,9.12
3,COc1ccc(/C(O)=C2/C(=O)C(=O)N(CCN3CCOCC3)C2c2cccnc2)cc1OC (stereo not shown),10.8
4,CCOc1ccc(NS(=O)(=O)c2cc(C(=O)NCC3CCCO3)ccc2Cl)cc1 (stereo not shown),13.3
5,COC(=O)c1c(NC(=O)Cc2cccs2)sc2c1CCC(C)C2 (stereo not shown),8.52
6,O=C1OCCC1Sc1nnc(-c2ccc(Cl)cc2Cl)o1 (stereo not shown),0.111
7,COc1ccccc1N(CC(=O)NC1CCCCC1)C(=O)CNC(=O)c1cccs1,0.928
8,O=C(Nc1ccccc1C(=O)O)c1cc(S(=O)(=O)N2CCCCC2)cs1,10.1
9,Cc1cc(C)n2nc(SCCCC(=O)c3ccccc3)nc2n1,-4.06
10,OC1(c2cccc(C(F)(F)F)c2)CCN(Cc2nnnn2Cc2ccccc2)CC1,10.4
11,O=C(Nc1cc2cccc([N+](=O)[O-])c2oc1=O)c1cccs1,9.75
12,O=C(CNC1CCCCCC1)Nc1ccc(S(=O)(=O)NC2CC2)cc1,1.98
13,CCCCCCNC(=O)CC(NS(=O)(=O)c1ccc(NC(C)=O)cc1)C(C)C (stereo not shown),-6.5
14,CC1(C)Cc2cccc(OCC(=O)Nc3ccc(S(N)(=O)=O)cc3)c2O1,-3.01
15,C/C=C(\C)C(=O)Nc1cccc(C2=NOC3(C2)C[C@H](C(N)=O)N(C(=O)C(c2ccccc2)c2ccccc2)C3)c1 (stereo partly shown),-3
16,COc1ccc(C(C(=O)NCC2CCCO2)N(C(=O)c2snc(C(N)=O)c2N)c2ccccc2C)cc1OC (stereo not shown),-5.76
17,CSc1nnc(CCNS(=O)(=O)c2ccccc2Br)n1C,9.05
18,CC(C)(C)NC(=O)COc1coc(CN2CCN(Cc3ccccc3)CC2)cc1=O,-1.29
19,COc1cc(C(=O)Nc2cc(C)c(OCC(=O)N3CCOCC3)c(C)c2)cc(OC)c1OC,11.5
20,Fc1ccc(NC(=S)N2CCCC2)cc1Cl,8.95
21,CCOC(=O)c1c(NC(=S)Nc2ccccc2)sc(C)c1C,4.49
22,Cc1nn(Cc2c(F)c(F)c(F)c(F)c2F)c(C)c1NC(=O)c1ccc(COc2cc(Cl)ccc2Cl)cc1,-1.43
23,O=S(=O)(Nc1nc2ccccc2nc1Nc1cccc(S(=O)(=O)N2CCCCC2)c1)c1ccccc1,-2.73
24,Cc1ccccc1C1C(C#N)=C(N)N(N(C)C)C2=C1C(=O)CC(C)(C)C2 (stereo not shown),3.85
25,COc1ccc(/C=C(\C#N)C(=O)Nc2cccc3ncccc23)cc1OC.Cl,17.6
26,CCOC(=O)C1CCN(C(=O)c2cc(S(=O)(=O)N(C)C)ccc2N2CCCC2)CC1,-18.6
27,Cc1onc(-c2ccccc2)c1CNS(=O)(=O)c1cccc(Cl)c1,-7.19
28,CCCCOC(=O)C1=C(C)Nc2ncnn2C1c1ccc(OC)c(OC)c1OC (stereo not shown),-18.3

row,SMILES,"hERG current change (%, negative = inhibition) at 10uM [%]"
1,COc1ccc(CCNS(=O)(=O)c2cc3c4c(c2)C(C)C(=O)N4CCC3)cc1OC (stereo not shown),11.3
2,CCN(CC)c1cc(C)c2cc(NC(=O)CNC(C)=O)ccc2n1,-11.3
3,C1CC(CN2CCOCC2)CN(c2nc3nonc3nc2N2CCSCC2)C1 (stereo not shown),-8.62
4,CC(C)CCNC(=O)C1CCC(=O)N1CCc1ccccc1 (stereo not shown),9.14
5,CCCSc1ncc(Cl)c(C(=O)Nc2ccc(S(=O)(=O)N3CC(C)OC(C)C3)cc2)n1 (stereo not shown),-7.92
6,C/C(CC(=O)NC1CCCCC1)=N\NC(=O)c1ccc(Br)cc1,-2.11
7,CSc1ccc(/C=N/NC(=O)c2sccc2C)cc1,15.4
8,CCN(CC(=O)Nc1c(F)cccc1F)C(=O)c1ccc(C#N)cc1,13
9,O=C(NCCNC(=O)c1ccc(Cl)cc1Cl)c1cnccn1,-8.98
10,O=C(NCCc1ccccc1)C1CCN(S(=O)(=O)c2cccs2)CC1,-2.14
11,COC(=O)C(N)CCCCN.Cl (stereo not shown),16.4
12,CS(=O)c1ccccc1COC(=O)Nc1ccccc1 (stereo not shown),9.76
13,Cc1nn(C)c(C(=O)Nc2ccc3c(c2)OCO3)c1[N+](=O)[O-],6.98
14,Cc1oc2ccc(OCC(N)=O)cc2c1C(=O)OC(C)C,-10.3
15,COC(=O)C1CCN(C(=O)COC(=O)COc2ccc(C#N)cc2)CC1,-12.3
16,N=c1oc2ccc(Cl)cc2cc1C(=O)Nc1ccc(F)cc1,29.6
17,COc1cc(/C=C/C(=O)Nc2ccc(C(C)=O)cc2)cc(OC)c1OC,10.1
18,C=CCn1c(O)c(C(C)=NCCN2CCOCC2)c(=O)[nH]c1=O,-10.5
19,CCN(CC)C(=O)c1oc2ccc(S(=O)(=O)N3CCCCCC3)cc2c1C,-5.58
20,Cc1cc(Nc2ccc(Br)cc2)n2nc(C)nc2n1,-42.5
21,Cc1nc(C)c(C(=O)N2CCCC(C(=O)c3ccc4ccccc4c3)C2)s1 (stereo not shown),-23
22,CC1CCC(NC(=O)CCS(=O)(=O)c2ccc3c(c2)oc(=O)n3C)CC1 (stereo not shown),5.15
23,O=C(Cn1nnc(-c2ccccc2F)n1)Nc1ccc(S(=O)(=O)NC2CCCC2)cc1,0.594
24,CCOc1ccc(NC(=O)c2sc3nc4n(c(=O)c3c2C)CCC4)cc1,20
25,O=C(O)c1ccc(N/N=C/c2ccncc2)cc1,12.4
26,Cc1nc2ccccn2c1/C(O)=C1\C(=O)C(=O)N(CCN2CCOCC2)C1c1ccncc1 (stereo not shown),15.9
27,CCOC(=O)C1(Cc2ccc(OC)cc2)CCN(C(=O)c2cc(C)nn2C)CC1,-40.5
